Measured values: the supplement of paper PMC12632987
Whole data set: some 4,500 sequences, median “median log2 fold change of GCK-ALFA target abundance (FLAG IP / Myc IP barcode read proportion)” near 0.078, cut for the lowest 2% near -0.6. The list shows a part of the results.

B1: GBRAP_160_4629 (protein)
chain: SAKLEEALKLVDEAAEFVKSMIPEVTVEEFAHGFEAEFGSVILYLEEEGLISEETADKMMKIVDDTVAYLLANPDLTDEERKALVDEAREKMKEVIKEDY
B2: GBRAP_128_3491 (protein)
chain: STAAAVARTRELLARIGEADAEEAAALTREIVALLASADPETREAIAEVIESRLPELSREKLLTIADTLEEQMPSLDPETANLVAGIQVAALNEALEKEE
B3: GBRAP_95_7015 (protein)
chain: EDDQLAADSLAEVLETAVDLGDEEAAARAARRLVALLVAHPEVRFPADLSPESAAVVLRAARETLSREDALRVAERLAASAADPEVRALARAAAAELRAE
B4: GBRAP_74_6539 (protein)
chain: SEEKIKKIEELLKEGKFLEAAELTKEIIENEDKETAIEAMNVLLDGVLANKDKLTLEEAEAVADAIVLLFEKVDDEDLSDDLWDKINAVLAAIIALEKAA
B5: GBRAP_128_3194 (protein)
chain: VSPAALAALRALAADVIATKSDAAIAAFAEAVAAALKAGQIDLDALEAVVAALGEGLDADTLDRVADALAAALADVGPEARAVALGTLGEKIYEKEEEEE
B6: GBRAP_150_3939 (protein)
chain: DLEELLLLAQGIETDLELALEPGFDKLKLAERALELAKDIAKESDEELKKLAEELIKLLEEAIKAIKAGAEEKEIQKLLEEALRKARELIEEIEKKIEEE
B7: GBRAP_184_5122 (protein)
chain: DVVHRAVEGEKAEELIAASRAVVEEAAAAGKRLHLSVFAKNMSVEEIIEVIKAMGELKARYPQVSVTVDVLDELSEEEIDKVLKAADEAGVRVVIAIPEE
B8: GBRAP_184_5111 (protein)
chain: KLLEETIKANNKEELEKKLTEVVEKAVKEKADLLVIVEIPNLTPEMAEIIMDKVAKAKEAGIKNVLVEIVSDNLSDEVIDTIDKKAKEYGLTNVVLAMKE
B9: GBRAP_26_5482 (protein)
chain: IEEEIEKLRERLKEVAKKLPDPTLAAALIASIDTLFEELEEYVEKNKNDLEAIKKALEETKKELLKDAEELGASPEAIEALKKELDEGFEEILKKAKEEL
B10: GBRAP_166_4992 (protein)
chain: SDEELLEETKKYIDEAFEEAKTASPEERREIIAEANLKVNEAIEKLKNLELAKELAVYFVERLVELLGSAEEARRLIVWPLSVPEEVIDAAEERLRELAE
B11: GBRAP_186_5396 (protein)
chain: ENKEEEHDKILKELEKENDIVIIVYLDSKDSLEKKKKIMENDVEAAEALAKETGKKVAVVFEVIDDEETLKELEKYVKELDKEAKERSGVTVKLLGKIKK
B12: GBRAP_80_6787 (protein)
chain: AEARLEAALAELAAIDPELAELLREIVELARELGVSLETLAELAEAVLELAKADLELARERLEELLELLRELREEGDSANAEAVLRVEAGEMLLEVEELE
B13: GBRAP_160_4462 (protein)
chain: MEKVKEAVEELLEDVEEELERSEDMSPEQLYLAVAITVGSELLEWSSEGLITDEQEEVLAKAIDELLALAKEKPDASLEEAKEEARRIVEEAAEKILELA
B14: GBRAP_128_3314 (protein)
chain: MDEERLEEAREIVERMKEADLEELAELTRRLAELLGTLTPEERDIVAEIFREGLKELSAEKLDVVADVLREVRPSLDPETANVVADLEVEALNEAVEKEE
B15: GBRAP_80_6768 (protein)
chain: MEKEIEKVLKEIEKLDKEVAEKLKEAVELAKKLGISLERILELVEAILELTKLDKEKALEIVKELVEALKEALKEGNKDKAVAELAGYISDALLAVEELE
B16: GBRAP_52_6354 (protein)
chain: MKERMKEIVDRLVALKKAGDEEGLRAEAREIVATLSDEELRLLFEELAEKAKESDPETAEALFEVAEVLEREMLEAGRDEFEASALLSDVGKAVYENLQK
B17: GBRAP_177_5010 (protein)
chain: SRLAEIEAAADDPEALLALVAATDLRELSREELLALLRALARAIAREGPRPELLEAAVRVAVALITDHGVSLAEVVAILIEHADPDTVEEVVERVAERLA
B18: GBRAP_160_4506 (protein)
chain: SSKYKEAAKVAEDAAKFIEEAKDTESREELAVVVAGEAGRVILEADELGVLSDEELDAFDEESRALVETILTGDEETAKAAVDEAIKMFKDLAKKLKKKA
B19: GBRAP_166_4931 (protein)
chain: SLEEIYEQAKKEVNELAEKAKTANDEELIELALEIRDILEEAKKKGLSPEQLKDILLEALSLLKDNPEKALFLLNMIEAAAGDDEELIDVIDRAKEEFLA

What follows are binders tested against GABARAP, O95166 (assay: median log2 fold change of GCK-ALFA target abundance (FLAG IP / Myc IP barcode read proportion) (log2 ratio); each designed protein is fused to an ALFA-tag nanobody in HEK293 cells to bring the named protein to FLAG-tagged glucokinase (GCK); Myc marks an untargeted standard; higher = target protein stabilised (more abundant)). Conditions: target protein: 3xFLAG-MCP-GCK-ALFA reporter; HEK293 landing pad (RPLP).
Chain of GABARAP, O95166 (O95166 whole entry, the tested form may be a part): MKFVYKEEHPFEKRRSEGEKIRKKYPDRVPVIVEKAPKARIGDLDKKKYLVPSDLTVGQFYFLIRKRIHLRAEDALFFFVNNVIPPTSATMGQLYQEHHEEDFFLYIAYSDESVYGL
Summary of the method: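 Sequencing of reverse-transcribed, amplified circular RNA barcodes from anti-FLAG and anti-Myc immunoprecipitates provided the readout for an ALFA-nanobody-fused binder library recombined into HEK293 landing-pad cells. Those cells were induced with 2 μg mL^−1 doxycycline, transfected with a plasmid expressing a FLAG-tagged target and a Myc-tagged standard, and lysed after 48 h. Target abundance is the per-binder median log2 ratio of FLAG to Myc barcode read proportions. Only barcodes at a proportion of ≥10^−7 in both replicates and binders with ≥3 barcodes per replicate were kept, with a 10^−6 pseudocount added before the two replicates were pooled.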
With B1 the “median log2 fold change” value was 0.0451. For B2, the “median log2 fold change” value was 0.217. With B3 the “median log2 fold change” value was 0.197. For B4, the “median log2 fold change” value was -0.27. B5 was tested, and the “median log2 fold change” value was -0.0769. In the case of B6, the “median log2 fold change” value is reported as 0.139. For B7, the “median log2 fold change” value was 0.0426. With B8 the “median log2 fold change” value was 0.326. In the case of B9, the “median log2 fold change” value is reported as 0.426. In the case of B10, the “median log2 fold change” value is reported as 0.282. B11 was tested, and the “median log2 fold change” value was -0.0896. In the case of B12, the “median log2 fold change” value is reported as -0.358. For B13, the “median log2 fold change” value was -0.501. B14 was tested, and the “median log2 fold change” value was 0.162. For B15, the “median log2 fold change” value was -0.0595. With B16 the “median log2 fold change” value was 0.137. In the case of B17, the “median log2 fold change” value is reported as 0.0662. B18 was tested, and the “median log2 fold change” value was 0.026. For B19, the “median log2 fold change” value was 0.203.
